Laboratory results as given in publication PMC4336329 (PLoS ONE, 2015).
Among all 310,000 compounds or so, about 2,200 (0.71%) showed an effect of 50% or more. Effects have a minus sign here. This is one part of the list.

molecular target: human ether-à-go-go-related gene (hERG) potassium channel (human, UniProt Q12809); assay: primary screen, population patch clamp on CHO cells stably expressing hERG
Sequence (Q12809 whole entry, looked up): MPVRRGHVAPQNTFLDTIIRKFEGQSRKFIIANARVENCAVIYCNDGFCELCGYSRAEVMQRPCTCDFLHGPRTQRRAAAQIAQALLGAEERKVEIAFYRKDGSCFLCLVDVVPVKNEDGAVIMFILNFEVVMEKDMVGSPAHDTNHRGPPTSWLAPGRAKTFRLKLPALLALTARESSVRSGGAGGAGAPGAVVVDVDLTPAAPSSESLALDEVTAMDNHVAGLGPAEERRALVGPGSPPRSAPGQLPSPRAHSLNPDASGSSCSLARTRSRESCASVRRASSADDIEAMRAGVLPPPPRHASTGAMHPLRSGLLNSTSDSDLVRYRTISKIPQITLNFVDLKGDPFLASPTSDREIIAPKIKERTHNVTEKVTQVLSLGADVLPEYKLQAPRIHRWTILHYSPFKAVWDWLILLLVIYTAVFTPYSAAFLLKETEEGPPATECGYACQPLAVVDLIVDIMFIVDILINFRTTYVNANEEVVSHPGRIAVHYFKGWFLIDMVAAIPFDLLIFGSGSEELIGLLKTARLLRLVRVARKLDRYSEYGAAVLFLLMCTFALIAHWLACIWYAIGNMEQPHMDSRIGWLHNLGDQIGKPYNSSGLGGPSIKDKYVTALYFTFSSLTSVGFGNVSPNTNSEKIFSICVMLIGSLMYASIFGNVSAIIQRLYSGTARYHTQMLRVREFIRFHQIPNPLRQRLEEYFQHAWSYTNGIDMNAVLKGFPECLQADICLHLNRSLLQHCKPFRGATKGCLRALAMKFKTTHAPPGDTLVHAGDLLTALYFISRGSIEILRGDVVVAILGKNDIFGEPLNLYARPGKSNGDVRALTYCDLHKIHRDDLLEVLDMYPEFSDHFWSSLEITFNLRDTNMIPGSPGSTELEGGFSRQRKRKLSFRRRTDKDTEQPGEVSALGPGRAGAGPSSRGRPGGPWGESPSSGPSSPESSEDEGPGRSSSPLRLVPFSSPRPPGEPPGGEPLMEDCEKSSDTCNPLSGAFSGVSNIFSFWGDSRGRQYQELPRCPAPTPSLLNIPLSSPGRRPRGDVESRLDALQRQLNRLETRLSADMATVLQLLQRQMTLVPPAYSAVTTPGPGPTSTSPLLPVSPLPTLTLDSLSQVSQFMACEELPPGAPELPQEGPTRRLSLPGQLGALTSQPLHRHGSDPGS

Row | Structure (SMILES) | hERG current change (%, negative = inhibition) at 1uM
1 | CCOc1ccc(C(=O)NCc2ccco2)cc1OC | 11.5%
2 | CCn1cc(C(=O)NCc2ccco2)c(=O)c2cc(F)c(N3CCN(C(=O)c4ccco4)CC3)cc21 | -0.391%
3 | O=C(NC1CCN(C(=O)N2c3ccccc3Sc3ccccc32)CC1)c1ccccc1F | 11.2%
4 | Cc1c(CCC(=O)O)c(=O)oc2cc3occ(C(C)(C)C)c3cc12 | 10.5%
5 | NC(=O)N/N=C/c1cn(-c2ccccc2)nc1-c1ccccc1 | 6.3%
6 | CCC(=O)Nc1ccc2nc(C)n(Cc3ccccc3Cl)c(=O)c2c1 | 6.02%
7 | Cc1ccccc1OC(C)C(=O)NCCC1=CCCCC1 (centres unmarked) | 6.21%
8 | CCc1ccccc1NC(=O)CCOc1ccccc1 | 12.5%
9 | Cc1nn(C)c(C)c1S(=O)(=O)N1CCCC(C(=O)N2CCN(c3ccc(Cl)cc3)CC2)C1 (centres unmarked) | -17.6%
10 | CCOc1ccc2nc(COC(=O)c3ccncc3)c(C(=O)c3ccccc3)[n+]([O-])c2c1 | 10%
11 | O=C(Cn1cnc([N+](=O)[O-])n1)N/N=C/c1ccc2ccccc2c1 | 7.24%
12 | Cn1c(=O)c2c(ncn2CC(=O)OCC(=O)NC(c2ccccc2)c2ccccc2)n(C)c1=O | -3.57%
13 | COc1ccc(N2CCN(C(=O)Cn3nnc(-c4ccccc4N)n3)CC2)cc1 | 9.76%
14 | O=C(COC(=O)c1ccc(O)cc1O)Nc1cc(-c2ccccc2)nn1-c1ccccc1 | 11.2%
15 | CC(C)CCNC(=O)c1ccc(C2SCC(=O)N2Cc2ccco2)cc1 (centres unmarked) | -11.1%
16 | Cl.NCCCCCC(=O)N/N=C/c1coc2ccccc2c1=O | 11.8%
17 | CC(NC(=O)CSc1nnc(-c2cc3cc(Cl)ccc3o2)n1C)c1ccccc1 (centres unmarked) | 10.5%
18 | COc1cc(NC(=O)CCN2CCN(C)CC2)cc(OC)c1 | 13.3%
19 | Cc1cc(=O)oc2cc(OCC(=O)NCc3ccco3)ccc12 | 2.19%
20 | COc1ccc(C(=O)CSc2nnc(-c3ccco3)n2CC2CCCO2)cc1 (centres unmarked) | 1.01%
21 | O=C(NCCc1ccccc1)C1(c2ccccc2)CC1(Cl)Cl (centres unmarked) | 5.32%
22 | COc1cc(N=CC2=C(O)c3ccccc3C2=O)cc(OC)c1 | 8.62%

Row | Structure (SMILES) | hERG current change (%, negative = inhibition) at 1uM
23 | COc1ccc2[nH]c(C)c(CN3CCC(C)CC3)c(=O)c2c1 | -18%
24 | O=C(c1ccc(Br)s1)N1CCN(c2ncccn2)CC1 | -15.4%
25 | COCCCNC(=O)Cn1ncc2c(=O)oc3ccccc3c21 | 5.96%
26 | COc1cccc(CNC(=O)CCS(=O)(=O)Cc2ccc(C)cc2)c1 | 30.3%
27 | COc1ccc(N(C(=O)Cn2nnc3ccccc32)C2(C(=O)NC3CCCC3)CCCCC2)cc1 | -0.0987%
28 | C=CCNC(=O)CN1CCC(c2nc3ccccc3[nH]2)CC1 | 16.5%
29 | O=C(O)c1cc(-c2ccccc2)n(-c2ccc(Cl)cc2Cl)n1 | 18.5%
30 | O=C(CN(C1CCCCC1)S(=O)(=O)c1ccc(Cl)cc1)NCc1cccnc1 | -60.6%
31 | CC(C)C[C@@H](CSc1ccc(Br)cc1)N1CCN(C)CCC1=O | -34.4%
32 | COc1ccc(-c2csc(NC(CO)c3nc4ccccc4n3CCOCCO)n2)cc1 (centres unmarked) | -14.7%
33 | COc1ccccc1NC(=O)CSc1ccc2nnc(-c3cccnc3)n2n1 | -25.6%
34 | CN(C)CCCN1C(=O)c2cccc3c([N+](=O)[O-])ccc(c23)C1=O | 7.12%
35 | Cc1nc(-c2ccc(Cl)cc2)sc1C1(C)CC(c2c(Cl)cccc2Cl)=NO1 (centres unmarked) | 17.8%
36 | Clc1ncc(CN2CCN(Cc3ccccc3)CC2)s1 | 6.26%
37 | COc1ccc(CNC(=O)C(=O)NC2CC(C)(C)NC(C)(C)C2)cc1 | 7.03%
38 | CCOC(=O)c1oc2ccc(CNC3CCCCC3)c(Cl)c2c1C.O=C(O)C(=O)O | 1.84%
39 | CCOP(=O)(OCC)c1nc(-c2ccc(Cl)cc2)oc1NCc1ccccc1 | 10.1%
40 | CC(C)CN(C(=O)C(c1ccccc1)c1ccccc1)c1c(N)n(CC(C)C)c(=O)[nH]c1=O | 3.78%
41 | CCOC(=O)c1ccc2nc3c(cc2c1)CCS3 | 12.8%
42 | O=C(CN1C(=O)COc2ccc(S(=O)(=O)N3CCCC3)cc21)N1CCCC1 | 14.3%
43 | O=C(Cc1cn2ccsc2n1)OCc1ccccc1 | 9.72%
44 | COc1ccccc1CNC(=S)NCc1ccc(Cl)cc1 | 6.97%

Row | Structure (SMILES) | hERG current change (%, negative = inhibition) at 1uM
45 | CC1CCCC(n2c(=S)[nH]c3ccccc3c2=O)C1C (centres unmarked) | 5.82%
46 | O=C(O)c1ccc(-n2nc(-c3ccccc3)c3ccccc3c2=O)cc1 | 15.9%
47 | Cc1csc(SCC(=O)NC(=O)Cc2ccccc2)n1 | 12.5%
48 | O=[N+]([O-])c1cc(S(=O)(=O)Nc2cccc(Cl)c2)ccc1N/N=C/c1ccc(N2CCOCC2)cc1 | 10.7%
49 | O=C1c2ccccc2C(Nc2ccc(S(=O)(=O)N3CCCCCC3)cc2)N1Cc1ccco1 (centres unmarked) | 4.75%
50 | Cc1ccccc1NC(=O)CCS(=O)(=O)c1cccc2nonc12 | 16.8%
51 | C=CCN(C(=O)CN1CCCCC1)c1nc(-c2ccccc2)cs1 | 3.72%
52 | CCc1nnc(NC(=O)CSc2nnc(COc3ccc(C)cc3)n2-c2ccccc2)s1 | 1.49%
53 | CCNC(=O)N(CCOC)CC1CCCN(C2Cc3ccccc3C2)C1 (centres unmarked) | 11.7%
54 | COc1cccc(N(CC(=O)N2CCN(C)CC2)S(=O)(=O)c2ccccc2)c1 | 5.26%
55 | COc1cc(NC(=O)COc2cccc(OC)c2)cc(OC)c1 | -0.639%
56 | Cc1ccccc1C(=O)O/N=C1\CCS(=O)(=O)c2sccc21 | 10.4%
57 | NC(=O)CCc1nc2cc(C(F)(F)F)ccc2n(Cc2ccccc2)c1=O | 1.09%
58 | O=C(C[N+]12CCC(CC1)C(O)C2)c1ccc(Br)cc1.[Br-] (centres unmarked) | 9.26%
59 | COc1ccc(CN(CC(=O)NCc2ccccc2)C(=O)CCC(=O)Nc2cc(C)ccn2)cc1 | -2.93%
60 | COc1ccc(C(CNC(=O)Cc2ccccc2Cl)N2CCCCC2)cc1 (centres unmarked) | 20.7%
61 | O=C(Nc1ccc(F)cc1F)c1ccc(-n2cncn2)nc1 | -1.74%
62 | Cc1ccc(C(C)C)c(OC/C(O)=C(\C#N)c2nc3ccccc3[nH]2)c1 | 8.56%
63 | O=C(O)c1ccccc1OCC1CCCO1 (centres unmarked) | 15.9%
64 | COc1ccccc1-c1noc2ncnc(Nc3cccc(C)c3C)c12 | 8.74%
65 | CN(C)CCCN(C(=O)c1cc(-c2cccs2)nc2ccccc12)c1nc2c(F)cccc2s1.Cl | 4.39%
66 | C(=N\Nc1nncc2ccccc12)/c1ccccn1 | 3.87%

Row | Structure (SMILES) | hERG current change (%, negative = inhibition) at 1uM
67 | O=[N+]([O-])c1cc(Oc2cccnc2)cc([N+](=O)[O-])c1 | -6.94%
68 | CSc1cccc(NC(=O)CSc2ncccc2C(=O)Oc2cccc([N+](=O)[O-])c2)c1 | 5.62%
69 | CC(C)(C)C(=O)NC1CC2CCCC(C1)N2C(=O)Nc1ccc(Cl)cc1 (centres unmarked) | 8.91%
70 | CCCCN(CCCC)CCCNC(=O)Cn1cc2c(n1)-c1c(oc(C(=O)N3CCCC3)c1C)CC2 | 2.36%
71 | COc1cc(CCC(=O)OCC(=O)Nc2ccc(F)c(F)c2F)cc(OC)c1OC | 7.88%
72 | CCN(Cc1ccccc1)C(=O)C1CCC(CNc2c(N3CCOCC3)c(=O)c2=O)CC1 (centres unmarked) | 12.5%
73 | COC(=O)c1ccc(C)c(NS(=O)(=O)c2ccc(OC)cc2)c1 | -2.25%
74 | COC(=O)C1=CN(c2ccc(OC)cc2)C=C(C(=O)OC)C1c1ccc(C)c([N+](=O)[O-])c1 | 16.5%
75 | CC(=O)[C@H]1[C@H]([C@H](O)[C@H](O)CO)O[C@](O)(C(=O)O)C[C@@H]1O | 14.7%
76 | Cc1ccc(CN2[C@@H](c3ccccc3)COCCS2(=O)=O)cc1 | 7.56%
77 | C/C(=N\NC(=O)CN1CCCCC1)c1cccc([N+](=O)[O-])c1 | 2.07%
78 | Cc1ccc(CN2CCN(CC(=O)N3CCc4ccccc4C3)C2=O)cc1 | -9.47%
79 | C=CCN(CC=C)C(=S)NC(=O)/C=C/c1ccccc1 | 3.17%
80 | CCOc1ccc(N(CC(=O)NCCc2ccc(OC)cc2)S(C)(=O)=O)cc1 | 5.26%
81 | COc1ccc(N2CCN(C(CNC(=O)C(=O)NCCCn3ccnc3)c3ccco3)CC2)cc1 (centres unmarked) | 10.9%
82 | CN(C(=O)CS(=O)(=O)c1cccc(Cl)c1)c1ccccc1 | 6.56%
83 | O=C(NCc1ccco1)c1ccccc1-c1nc(-c2ccc(F)cc2)no1 | 0.847%
84 | O=C(CN(Cc1ccc2c(c1)OCO2)C(=O)CSc1nc2ccccc2o1)NC1CCCCC1 | 12.5%
85 | COc1ccc(-c2cccc(C(=O)Nc3cccc(C(=O)O)c3)c2)cc1 | 15.9%
86 | O=C(N/N=C/C(Cl)=C\c1ccccc1)c1cnccn1 | 1.92%
